A compilation of properties of binary mixtures (doi:10.1088/1757-899x/591/1/012044)
The densities may have been worked out from excess volumes.

Test: xn = mol fraction of the nth substance listed
Conditions: 101 kPa

O + CC[n+]1ccn(C)c1.CS(=O)(=O)[O-]
x2 = 0
Conditions	mass density [kg/m3]
288.15 K	998.3
293.15 K	997.8
313.15 K	992.9

CC[n+]1ccn(C)c1.CS(=O)(=O)[O-] + O
mass density [kg/m3]
Conditions	288.15 K	293.15 K	298.15 K	303.15 K	308.15 K	313.15 K
x1 = 0.25	1197.3	–	1190	1187.8	1184.4	1180.5
x1 = 0.5	–	1224.9	1221.6	1218.2	1214.8	1211.5
x1 = 0.75	–	1235.2	1232.5	1228.5	1226.3	–
x1 = 1	–	1243.4	1240	1236.5	1233.1	1229.8
